{"source": "PubChem BioAssay AID588453", "about": "(National Center for Advancing Translational Sciences (NCATS), 2011)", "note": "Out of some 390,000 compounds screened, about 4,000 (1%) were called active. Inconclusive results, whose numbers are uncertain, are shown with a selection of clear calls. The call rests on the fitted dose curve; in most records, active means well fitted inhibition curve with a large enough effect; inconclusive means small, poorly fitted or top-dose-only effect; inactive means no such curve, though single readings can be large or run the other way. Potencies of inconclusive entries are doubtful fits and often do not repeat. Potency means the concentration at half of the fitted maximal effect; tags describe the fitted curve by direction and shape."}
{"molecular_target": "Thioredoxin reductase 1, cytoplasmic (Rattus norvegicus) (UniProt O89049)", "sequence (O89049 whole entry, looked up)": "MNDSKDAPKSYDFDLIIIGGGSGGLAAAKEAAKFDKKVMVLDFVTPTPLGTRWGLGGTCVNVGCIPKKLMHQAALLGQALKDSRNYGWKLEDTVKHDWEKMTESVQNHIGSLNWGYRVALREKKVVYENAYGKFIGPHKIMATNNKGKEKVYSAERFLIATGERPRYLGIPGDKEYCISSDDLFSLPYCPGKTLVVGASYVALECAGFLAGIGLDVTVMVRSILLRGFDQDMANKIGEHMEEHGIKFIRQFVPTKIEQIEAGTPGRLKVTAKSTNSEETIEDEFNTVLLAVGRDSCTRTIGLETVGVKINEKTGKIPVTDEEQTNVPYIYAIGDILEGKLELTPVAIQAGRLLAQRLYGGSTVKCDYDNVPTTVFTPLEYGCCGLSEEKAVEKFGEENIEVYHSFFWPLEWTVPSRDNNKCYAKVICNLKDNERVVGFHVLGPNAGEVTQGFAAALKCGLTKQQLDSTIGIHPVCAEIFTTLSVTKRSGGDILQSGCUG", "experiment": "qHTS Assay for Inhibitors of Mammalian Selenoprotein Thioredoxin Reductase 1 (TrxR1): qHTS; further: nearly all actives have a fitted effect of over 65% in size", "details": "recombinant rTrxR1, NADPH fluorescence consumption, selenite substrate; series mostly up to 114 µM", "procedure,_shortened": "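Rat TrxR1 (90 nM in the dispensed reagent) was pre-reduced with 400 uM NADPH for 5 min at room temperature, then incubated with compound for 15 min. After 400 uM selenite was added, NADPH fluorescence (Ex 340/Em 450 nm) was followed for 8 min.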"}
{"smiles": "O=C(CSc1nncn2c1cc1occc12)Nc1ccc(F)c(Cl)c1", "Potency": "inconclusive: 89.1 µM [inhibitor, single point]"}
{"smiles": "CCOc1ncccc1C(=O)Nc1cc(C(F)(F)F)ccc1N1CCOCC1", "Potency": "inactive"}
{"smiles": "COc1ccc(C2NC3=C(CCC3)C3(C#N)C(OC)(OC)N=C(N)C23C#N)cc1", "note": "(stereo not given)", "Potency": "inconclusive: 39.8 µM [inhibitor, partial curve, poor fit]"}
{"smiles": "CCOC(=O)C1=CN(Cc2ccco2)S(=O)(=O)N(C)C1c1ccc(F)c(Cl)c1", "note": "(stereo not given)", "Potency": "inconclusive: 79.4 µM [inhibitor, partial curve]"}
{"smiles": "COc1cc([C@@H]2[C@H]3CNCC=C3C(C#N)=C(N)C2(C#N)C#N)ccc1OC(C)C", "Potency": "inactive"}
{"smiles": "Cc1ccccc1S(=O)(=O)NC1OC(=O)C(Oc2ccccc2)=C1Br", "note": "(stereo not given)", "Potency": "inconclusive: 22.4 µM [inhibitor, single point]"}
{"smiles": "CCCCNc1nc(CC(C)=O)ns1", "Potency": "inconclusive: 89.1 µM [inhibitor, single point]"}
{"smiles": "O=C1c2ccccc2-c2cc([N+](=O)[O-])c([N+](=O)[O-])cc21", "Potency": "inconclusive: 10 µM [inhibitor, full curve, poor fit]"}
{"smiles": "Nc1nnc(CSCc2ccc(Cl)cc2Cl)s1", "Potency": "inconclusive: 28.2 µM [inhibitor, single point]"}
{"smiles": "CCN(CC)c1ccc(NC(=S)NC(=O)c2cccs2)cc1", "Potency": "active: 79.4 µM"}
{"smiles": "Oc1cc(O)cc(/C=C/c2ccc(O)c(O)c2)c1", "Potency": "inconclusive: 7.52 µM [inhibitor, partial curve]"}
{"smiles": "Cc1ccc(Cl)cc1N1CCN(c2nc3ccccc3c3nc(-c4cccnc4)nn23)CC1", "Potency": "inactive"}
{"smiles": "O=C(CC(Nc1ccccc1Cl)C(=O)OCC(=O)c1cccs1)c1ccccc1", "note": "(stereo not given)", "Potency": "active: 12.6 µM"}
{"smiles": "Cc1c(C=O)c2cc(OCc3ccccc3)ccc2n1C", "Potency": "inconclusive: 79.4 µM [inhibitor, single point]"}
{"smiles": "CCOC(=O)C1CCN(C(c2cc3ccc(C)cc3[nH]c2=O)c2nnnn2C2CCCCC2)CC1", "note": "(stereo not given)", "Potency": "inconclusive: 31.6 µM [inhibitor, partial curve, poor fit]"}
{"smiles": "Cc1ccc(NC(=O)CN2C(=O)CC(c3ccco3)Sc3ccccc32)cc1Cl", "note": "(stereo not given)", "Potency": "inactive"}
{"smiles": "O=C(c1ccco1)N1CCCC(c2nc3c(nnn3Cc3c(Cl)cccc3Cl)c(=O)[nH]2)C1", "note": "(stereo not given)", "Potency": "inconclusive: 50.1 µM [inhibitor, partial curve, poor fit]"}
{"smiles": "CC(C)N1CCc2c(sc(NC(=O)c3ccco3)c2C(N)=O)C1", "Potency": "inconclusive: 35.5 µM [inhibitor, partial curve]"}
{"smiles": "CCOc1ccc(S(=O)(=O)NCCSCc2ccco2)cc1", "Potency": "inconclusive: 22.4 µM [inhibitor, partial curve]"}
{"smiles": "Cc1cc(CNCc2c(C(=O)N3CCCCCCC3)nc3ccc(Cl)cn23)nn1C", "Potency": "inconclusive: 70.8 µM [inhibitor, partial curve, poor fit]"}
{"smiles": "COc1ccc(/C=C2\\SC(=O)N(CCNC(=O)CCS(=O)(=O)c3ccc(C)cc3)C2=O)cc1", "Potency": "inconclusive: 39.8 µM [inhibitor, partial curve]"}
{"smiles": "COc1ccc(-n2c(CN3CCC(C)CC3)nc3ccc([N+](=O)[O-])cc3c2=O)c(OC)c1", "Potency": "inconclusive: 100 µM [inhibitor, single point]"}
{"smiles": "N#Cc1ccc(-c2ccco2)nc1SCc1ccccc1", "Potency": "inconclusive: 25.1 µM [inhibitor, full curve]"}
{"smiles": "COc1ccc(-n2cc(-c3ccccc3)c3c(=O)[nH]cnc32)cc1", "Potency": "inactive"}
{"smiles": "CCCN1CCN(C(=O)Cn2ncc3ccccc32)CC1", "Potency": "inconclusive: 79.4 µM [inhibitor, partial curve]"}
{"smiles": "NC(=S)NNc1ccnc2cc(Cl)ccc12", "Potency": "inactive"}
{"smiles": "N#CCc1c(C#N)c(N)nc(N2CCCC(O)C2)c1C#N", "note": "(stereo not given)", "Potency": "inconclusive: 79.4 µM [inhibitor, single point]"}
{"smiles": "Fc1ccc(-c2nc3ccncc3[nH]2)cc1", "Potency": "inconclusive: 17.8 µM [inhibitor, single point]"}
{"smiles": "COc1cccc(-c2cc(C(=O)N3CCN(C(=O)c4ccco4)CC3)on2)c1", "Potency": "active: 79.4 µM"}
{"smiles": "CC(C)CN(CC(C)C)C(=O)c1cc2c(=O)n3ccccc3nc2s1", "Potency": "inactive"}
{"smiles": "Cc1c(C)n(CCCN(C)C)c2ncnc(Nc3ccccc3)c12", "Potency": "inactive"}
{"smiles": "Cc1ccc(CN(C)C(=O)C2CCN(C(=O)Nc3ccccc3)CC2)o1", "Potency": "inconclusive: 22.4 µM [inhibitor, partial curve, poor fit]"}
{"smiles": "CC(C)CCOP(=O)(c1ccc(N(C)C)cc1)C(O)c1ccc(Cl)cc1Cl", "note": "(stereo not given)", "Potency": "inactive"}
{"smiles": "O=C1[C@@H]2C(c3cccnc3)=NO[C@@H]2C(=O)N1c1ccc(Cl)cc1Cl", "Potency": "active: 70.8 µM"}
{"smiles": "C(=C/c1nccc2c1[nH]c1ccccc12)/c1ccc2c(c1)OCO2", "Potency": "inactive"}
{"smiles": "Cc1ccc(-n2ncc3c(NCc4ccco4)ncnc32)c(C)c1", "Potency": "inconclusive: 89.1 µM [inhibitor, single point]"}
{"smiles": "CCOc1ccc(C2NC(=O)c3n[nH]c(C)c32)cc1", "note": "(stereo not given)", "Potency": "inactive"}
{"smiles": "Cc1nc2ccccc2nc1/C=C/c1ccc(N(C)C)cc1", "Potency": "inconclusive: 44.7 µM [inhibitor, partial curve]"}
{"smiles": "N#CC1=C(N)Oc2c(ccc3ccccc23)C1c1ccsc1", "note": "(stereo not given)", "Potency": "inconclusive: 50.1 µM [inhibitor, partial curve]"}
{"smiles": "CCNCC(O)COCC(O)CNCC", "note": "(stereo not given)", "Potency": "inconclusive: 22.4 µM [inhibitor, single point]"}
{"smiles": "Cc1ccc(-c2ccccc2)n1-c1cccc(C(=O)O)c1", "Potency": "inconclusive: 79.4 µM [inhibitor, single point]"}
{"smiles": "O=C(COc1ccccc1)NCC(=O)N/N=C/c1ccco1", "Potency": "inconclusive: 79.4 µM [inhibitor, single point]"}
{"smiles": "CC1(C)CC(=O)C2=C(C1)NC(Nc1nc3ccccc3o1)=NC2c1cccnc1", "note": "(stereo not given)", "Potency": "inactive"}
{"smiles": "O=c1oc2cc(Oc3c([N+](=O)[O-])cc(C(F)(F)F)cc3[N+](=O)[O-])ccc2c2c1CCCC2", "Potency": "inconclusive: 14.1 µM [inhibitor, full curve, poor fit]"}
{"smiles": "COCCCn1c(=N)c(C(=O)NC2CCCC2)cc2c(=O)n3cccc(C)c3nc21", "Potency": "inconclusive: 35.5 µM [inhibitor, single point]"}
